Laboratory results published in the GPR68 mutational scans of Howard et al. (2025).
The least precise scores are not listed. Two further conditions of the source, in which the scores hardly spread, are not listed. In variant names, del marks residues removed and ins residues inserted between the two positions. For some assays here: The data file names ogerin without a concentration.

B1: GPR68, Q15743 (parent)
chain: MGNITADNSSMSCTIDHTIHQTLAPVVYVTVLVVGFPANCLSLYFGYLQIKARNELGVYLCNLTVADLFYICSLPFWLQYVLQHDNWSHGDLSCQVCGILLYENIYISVGFLCCISVDRYLAVAHPFRFHQFRTLKAAVGVSVVIWAKELLTSIYFLMHEEVIEDENQHRVCFEHYPIQAWQRAINYYRFLVGFLFPICLLLASYQGILRAVRRSHGTQKSRKDQIQRLVLSTVVIFLACFLPYHVLLLVRSVWEASCDFAKGVFNAYHFSLLLTSFNCVADPVLYCFVSETTHRDLARLRGACLAFLTCSRTGRAREAYPLGAPEASGKSGAQGEEPELLTKLHPAFQTPNSPGSGGFPTGRLA

Columns and labels:
[1] = variants of: B1; assay: cAMP reporter score (Enrich2 score, wild type = 0); higher = more signal; HEK293T, FACS bins
[2] = variants of: B1; assay: surface expression score (Enrich2 score, wild type = 0); higher = more signal; HEK293T, FACS bins

Work on MGNITADNSSMSCTIDHTIHQTLAPVVYVTVLVVGFPANCLSLYFGYLQIKARNELGVYLCNLTVADLFYICSLPFWLQYVLQHDNWSHGDLSCQVCGILLYEIIYISVGFLCCISVDRYLAVAHPFRFHQFRTLKAAVGVSVVIWAKELLTSIYFLMHEEVIEDENQHRVCFEHYPIQAWQRAINYYRFLVGFLFPICLLLASYQGILRAVRRSHGTQKSRKDQIQRLVLSTVVIFLACFLPYHVLLLVRSVWEASCDFAKGVFNAYHFSLLLTSFNCVADPVLYCFVSETTHRDLARLRGACLAFLTCSRTGRAREAYPLGAPEASGKSGAQGEEPELLTKLHPAFQTPNSPGSGGFPTGRLA [N104I] yielded a cAMP reporter score ([1]; pH 5.5) of -1.46, a cAMP reporter score ([1]; pH 6.5, modulator: ogerin) of -0.661 and a surface expression score [2] of -2.52.

Work on MGNITADNSSMSCTIDHTIHQTLAPVVYVTVLVVGFPANCLSLYFGYLQIKARNELGVYLCNLTVADLFYICSLPFWLQYVLQHDNWSHGDLSCQVCGILLYEKIYISVGFLCCISVDRYLAVAHPFRFHQFRTLKAAVGVSVVIWAKELLTSIYFLMHEEVIEDENQHRVCFEHYPIQAWQRAINYYRFLVGFLFPICLLLASYQGILRAVRRSHGTQKSRKDQIQRLVLSTVVIFLACFLPYHVLLLVRSVWEASCDFAKGVFNAYHFSLLLTSFNCVADPVLYCFVSETTHRDLARLRGACLAFLTCSRTGRAREAYPLGAPEASGKSGAQGEEPELLTKLHPAFQTPNSPGSGGFPTGRLA [N104K] yielded a cAMP reporter score ([1]; pH 5.5) of -1.06, a cAMP reporter score ([1]; pH 6) of -1.27 and a cAMP reporter score ([1]; pH 6, modulator: ogerin) of -1.59. It also gave a cAMP reporter score ([1]; pH 6.5, modulator: ogerin) of -0.491 and a surface expression score [2] of 2.3.

With MGNITADNSSMSCTIDHTIHQTLAPVVYVTVLVVGFPANCLSLYFGYLQIKARNELGVYLCNLTVADLFYICSLPFWLQYVLQHDNWSHGDLSCQVCGILLYELIYISVGFLCCISVDRYLAVAHPFRFHQFRTLKAAVGVSVVIWAKELLTSIYFLMHEEVIEDENQHRVCFEHYPIQAWQRAINYYRFLVGFLFPICLLLASYQGILRAVRRSHGTQKSRKDQIQRLVLSTVVIFLACFLPYHVLLLVRSVWEASCDFAKGVFNAYHFSLLLTSFNCVADPVLYCFVSETTHRDLARLRGACLAFLTCSRTGRAREAYPLGAPEASGKSGAQGEEPELLTKLHPAFQTPNSPGSGGFPTGRLA [N104L] the cAMP reporter score ([1]; pH 5.5) was -0.821, the cAMP reporter score ([1]; pH 6, modulator: ogerin) was -0.095 and the surface expression score [2] was -3.34.

For MGNITADNSSMSCTIDHTIHQTLAPVVYVTVLVVGFPANCLSLYFGYLQIKARNELGVYLCNLTVADLFYICSLPFWLQYVLQHDNWSHGDLSCQVCGILLYEMIYISVGFLCCISVDRYLAVAHPFRFHQFRTLKAAVGVSVVIWAKELLTSIYFLMHEEVIEDENQHRVCFEHYPIQAWQRAINYYRFLVGFLFPICLLLASYQGILRAVRRSHGTQKSRKDQIQRLVLSTVVIFLACFLPYHVLLLVRSVWEASCDFAKGVFNAYHFSLLLTSFNCVADPVLYCFVSETTHRDLARLRGACLAFLTCSRTGRAREAYPLGAPEASGKSGAQGEEPELLTKLHPAFQTPNSPGSGGFPTGRLA [N104M], the cAMP reporter score ([1]; pH 5.5) was -1.19 and the cAMP reporter score ([1]; pH 6.5, modulator: ogerin) was -2.5.

For MGNITADNSSMSCTIDHTIHQTLAPVVYVTVLVVGFPANCLSLYFGYLQIKARNELGVYLCNLTVADLFYICSLPFWLQYVLQHDNWSHGDLSCQVCGILLYEPIYISVGFLCCISVDRYLAVAHPFRFHQFRTLKAAVGVSVVIWAKELLTSIYFLMHEEVIEDENQHRVCFEHYPIQAWQRAINYYRFLVGFLFPICLLLASYQGILRAVRRSHGTQKSRKDQIQRLVLSTVVIFLACFLPYHVLLLVRSVWEASCDFAKGVFNAYHFSLLLTSFNCVADPVLYCFVSETTHRDLARLRGACLAFLTCSRTGRAREAYPLGAPEASGKSGAQGEEPELLTKLHPAFQTPNSPGSGGFPTGRLA [N104P], the cAMP reporter score ([1]; pH 5.5) was -0.551 and the cAMP reporter score ([1]; pH 6.5, modulator: ogerin) was -1.29.

Work on MGNITADNSSMSCTIDHTIHQTLAPVVYVTVLVVGFPANCLSLYFGYLQIKARNELGVYLCNLTVADLFYICSLPFWLQYVLQHDNWSHGDLSCQVCGILLYEQIYISVGFLCCISVDRYLAVAHPFRFHQFRTLKAAVGVSVVIWAKELLTSIYFLMHEEVIEDENQHRVCFEHYPIQAWQRAINYYRFLVGFLFPICLLLASYQGILRAVRRSHGTQKSRKDQIQRLVLSTVVIFLACFLPYHVLLLVRSVWEASCDFAKGVFNAYHFSLLLTSFNCVADPVLYCFVSETTHRDLARLRGACLAFLTCSRTGRAREAYPLGAPEASGKSGAQGEEPELLTKLHPAFQTPNSPGSGGFPTGRLA [N104Q] yielded a cAMP reporter score ([1]; pH 5.5) of -0.333, a cAMP reporter score ([1]; pH 6) of -0.223 and a cAMP reporter score ([1]; pH 6, modulator: ogerin) of -0.916. It also gave a cAMP reporter score ([1]; pH 6.5, modulator: ogerin) of -0.823 and a surface expression score [2] of -0.032.
